{"source": "paper PMC10726135", "note": "The other results are listed elsewhere or left out. At the low end of the ranking the order means little. The protein was read in a cell extract, so binding may be indirect.", "data": [{"molecular_target": "T1, HNF4alpha8 (COS-7 nuclear extract) (UniProt P41235-5)", "T1 sequence": "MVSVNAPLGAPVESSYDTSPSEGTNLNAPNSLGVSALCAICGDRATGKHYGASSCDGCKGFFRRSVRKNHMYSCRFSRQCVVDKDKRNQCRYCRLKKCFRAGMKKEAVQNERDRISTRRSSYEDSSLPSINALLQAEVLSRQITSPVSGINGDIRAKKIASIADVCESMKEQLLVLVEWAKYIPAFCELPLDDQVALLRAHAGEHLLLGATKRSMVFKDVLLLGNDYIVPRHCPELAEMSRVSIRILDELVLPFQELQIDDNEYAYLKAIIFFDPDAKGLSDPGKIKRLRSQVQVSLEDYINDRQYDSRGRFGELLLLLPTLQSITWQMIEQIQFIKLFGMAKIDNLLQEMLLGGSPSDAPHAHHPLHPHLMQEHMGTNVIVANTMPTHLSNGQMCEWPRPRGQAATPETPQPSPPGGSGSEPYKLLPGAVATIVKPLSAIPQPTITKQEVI", "assay": "protein-binding microarray", "conditions": "COS-7 nuclear extract on double-stranded Agilent 4x180k PBM; binding buffer, salt, pH and temperature not given; high values mean tight binding; double strand, one strand shown; sequences stand for … in …GCCTAGGGAGATTAGAGTATCGGTCGA", "values": [{"sequence": "ACATTTTAACACAGGACAAATCAAGTGAAA", "binding signal (log2 normalized intensity)": -1.15}, {"sequence": "GGGAGGGAACAGTCCAGAGTCTGACAGAAC", "binding signal (log2 normalized intensity)": -1.34}, {"sequence": "TGATCGCCCTCCCCCAGAGAGAACAGTCCT", "binding signal (log2 normalized intensity)": 4.87}, {"sequence": "GTGGCCGGACAGGTTGGGTCTGAAGCCACA", "binding signal (log2 normalized intensity)": -1.34}, {"sequence": "AACCAAGCCTGCAGCACCTTGATGCTGGAC", "binding signal (log2 normalized intensity)": -0.455}, {"sequence": "GAAAGTGAGCAGGCAGTGTCACAGAAATCA", "binding signal (log2 normalized intensity)": -1.17}, {"sequence": "AATACAGAGTCCAAATTCCTTGGTATGGCA", "binding signal (log2 normalized intensity)": 2.57}, {"sequence": "ACCCAGGCATACTCAGTTATCAACCTTATC", "binding signal (log2 normalized intensity)": -0.234}, {"sequence": "TGTCTCTGGTCAGGGAGGGCTTTAGAATGT", "binding signal (log2 normalized intensity)": -0.436}, {"sequence": "TTGCTACACTGCCAAAGTTCAACCATACAC", "binding signal (log2 normalized intensity)": 1.53}, {"sequence": "ATCTACTTTTTGACCTTGCAGTGGCAAGGC", "binding signal (log2 normalized intensity)": 2.37}, {"sequence": "TTCGGCACCTTCTACACAGCACCCCTTGCA", "binding signal (log2 normalized intensity)": 2.41}, {"sequence": "TTGGATAACCTTCTGCTGGATGCCCAGGGA", "binding signal (log2 normalized intensity)": 0.481}, {"sequence": "CTCCTCACTATTGTGCTAATATAAGTCATT", "binding signal (log2 normalized intensity)": 1.14}, {"sequence": "CTGTTCTAAGCACCTCTGCTTATCTCAACT", "binding signal (log2 normalized intensity)": -1.23}, {"sequence": "ACAGGCTGAGGATCTAATGCACCCAGAACC", "binding signal (log2 normalized intensity)": -1.36}, {"sequence": "GCGGTTCATCCAACAGGTGAGGTGGGTGTT", "binding signal (log2 normalized intensity)": 1.12}, {"sequence": "GCTATCAGTACTGAAACATGCCTATGACCG", "binding signal (log2 normalized intensity)": 1.74}, {"sequence": "ATAAGGGTATGGATTCTGGGACCCACCCAC", "binding signal (log2 normalized intensity)": 1.33}, {"sequence": "CATATCAGCTTTCTTTTCCAACCATTGACA", "binding signal (log2 normalized intensity)": 2.32}, {"sequence": "TTGTGTTATGTACTTAGTGTTTTATGTGTA", "binding signal (log2 normalized intensity)": 2.3}, {"sequence": "ATTCAGAGGTCAGGGGAGAGAGGCAAGATC", "binding signal (log2 normalized intensity)": -1.25}, {"sequence": "TTTGTTAAGTACCCACTATAGATTGTGAGA", "binding signal (log2 normalized intensity)": 0.693}, {"sequence": "ATTTCCTGCAGGTGGTGACCCCAGACCTTA", "binding signal (log2 normalized intensity)": 4.34}, {"sequence": "GTACAGAGAGCATTCTGCTGCTCTTTAATC", "binding signal (log2 normalized intensity)": 0.966}, {"sequence": "GCGGAAGGACACAGATTCAGAGTCACATTT", "binding signal (log2 normalized intensity)": -0.253}, {"sequence": "TCTGGATGCCTCACCTGGCAAGGCAGCCTC", "binding signal (log2 normalized intensity)": -1.46}, {"sequence": "AGAGACCTGGCGGATAGATAGAATCTTAAC", "binding signal (log2 normalized intensity)": -1.28}, {"sequence": "AAATTTATCTATTGGGTACAATGTTCACTA", "binding signal (log2 normalized intensity)": 3.63}, {"sequence": "GTGTTTAACCTTTGGGTGTGTTCAGCGAGG", "binding signal (log2 normalized intensity)": 2.34}, {"sequence": "ACTAAAGTTCAGGAGGGAGGAGCATTTCAC", "binding signal (log2 normalized intensity)": -1.24}, {"sequence": "TTGTGATTTCCAAAAGGTACCACTGTTTGC", "binding signal (log2 normalized intensity)": 0.597}, {"sequence": "CGGGCGCCCTGGTCTCTGCTACCTGTAGCT", "binding signal (log2 normalized intensity)": -1.19}, {"sequence": "TAGGCTGGACTCTGACCCATTCCTTCTCAC", "binding signal (log2 normalized intensity)": 5.01}, {"sequence": "CAACTCCACGCCCGCCGCCAGGTGGCCGAG", "binding signal (log2 normalized intensity)": -1.21}, {"sequence": "TCAGAACTTCACTCAGTGGGGTGTCTGTGT", "binding signal (log2 normalized intensity)": 1.89}, {"sequence": "AACGGGGACGCTTTAGAGAAACGCACTCGC", "binding signal (log2 normalized intensity)": -1.11}, {"sequence": "ACTGACCACAATTACTGAAGTTCCAGAGCC", "binding signal (log2 normalized intensity)": -1.29}, {"sequence": "CCAGCACTTCGACCTCACATTGTAGCTAAA", "binding signal (log2 normalized intensity)": 0.346}, {"sequence": "AACAAGCAGCAAGGCCTGAATGAGCTCTGG", "binding signal (log2 normalized intensity)": -1.29}]}]}
